For eight molecules, binding result and Kd results are on record in patent US20230312684A1 (PINETREE THERAPEUTICS, published 2023).

Positions count from the first letter of the chain named. In names and notes the source's numbering stands. Where only a bound is given, the exact number is not on record here.

The target of experiment [1] is T1, Recombinant RSV F protein (Octet assays of Examples 14 and 16) (respiratory syncytial virus).
T1 construct: also called Recombinant RSV Protein; respiratory syncytial virus (RSV) F glycoprotein
The experiment can be described thus: BLI (Octet Red 96), RSV F glycoprotein.

Experiment [2] addresses T1, Recombinant RSV F protein (Octet assays …).

B1: SEQ ID NO: 114, b1-Fc (NRP1, K373E, single b1) (Fc fusion)
chain: EDFKCMEALGMESGEIHSDQITASSQYSTNWSAERSRLNYPENGWTPGEDSYREWIQVDLGLLRFVTAVGTQGAISKETKKKYYVKTYKIDVSSNGEDWITIEEGNKPVLFQGNTNPTDVVVAVFPKPLITRFVRIKPATWETGISMRFEVYGCGGGGSGGGGSGGGGSGGGGS[human IgG1 Fc left out]
For the molecule B1, in experiment [1], the binding result was “no binding”.

B2: SEQ ID NO: 136, b1b1b1-Fc (NRP1, WT) (Fc fusion)
chain: EDFKCMEALGMESGEIHSDQITASSQYSTNWSAERSRLNYPENGWTPGEDSYREWIQVDLGLLRFVTAVGTQGAISKETKKKYYVKTYKIDVSSNGEDWITIKEGNKPVLFQGNTNPTDVVVAVFPKPLITRFVRIKPATWETGISMRFEVYGCGGGGSGGGGSGGGGSGGGGSCMEALGMESGEIHSDQITASSQYSTNWSAERSRLNYPENGWTPGEDSYREWIQVDLGLLRFVTAVGTQGAISKETKKKYYVKTYKIDVSSNGEDWITIKEGNKPVLFQGNTNPTDVVVAVFPKPLITRFVRIKPATWETGISMRFEVYGCGGGGSGGGGSGGGGSGGGGSCMEALGMESGEIHSDQITASSQYSTNWSAERSRLNYPENGWTPGEDSYREWIQVDLGLLRFVTAVGTQGAISKETKKKYYVKTYKIDVSSNGEDWITIKEGNKPVLFQGNTNPTDVVVAVFPKPLITRFVRIKPATWETGISMRFEVYGCGGGGSGGGGSGGGGSGGGGS[human IgG1 Fc left out]
The Kd is the equilibrium constant for the complex coming apart. For B2, the Kd in experiment [2] is less than 1 nM.

B3: SEQ ID NO: 116, b1b1b1-Fc (NRP1, K373E, triple b1) (Fc fusion)
chain: B2 chain with K103E, K273E, K443E
Regarding B3, the dissociation constant Kd in experiment [2] was less than 1 nM.

B4: SEQ ID NO: 135, b1b1-Fc (NRP1, WT) (Fc fusion)
chain: EDFKCMEALGMESGEIHSDQITASSQYSTNWSAERSRLNYPENGWTPGEDSYREWIQVDLGLLRFVTAVGTQGAISKETKKKYYVKTYKIDVSSNGEDWITIKEGNKPVLFQGNTNPTDVVVAVFPKPLITRFVRIKPATWETGISMRFEVYGCGGGGSGGGGSGGGGSGGGGSCMEALGMESGEIHSDQITASSQYSTNWSAERSRLNYPENGWTPGEDSYREWIQVDLGLLRFVTAVGTQGAISKETKKKYYVKTYKIDVSSNGEDWITIKEGNKPVLFQGNTNPTDVVVAVFPKPLITRFVRIKPATWETGISMRFEVYGCGGGGSGGGGSGGGGSGGGGS[human IgG1 Fc left out]
On to B4, for which the dissociation constant Kd in experiment [2] was less than 1 nM.

B5: SEQ ID NO: 115, b1b1-Fc (NRP1, K373E, double b1) (Fc fusion)
chain: B4 chain with K103E, K273E
On to B5, for which the dissociation constant (Kd) in experiment [2] was less than 1 nM.

B6: SEQ ID NO: 137, b1-Fc-b1 (NRP1, WT) (Fc fusion)
chain: EDFKCMEALGMESGEIHSDQITASSQYSTNWSAERSRLNYPENGWTPGEDSYREWIQVDLGLLRFVTAVGTQGAISKETKKKYYVKTYKIDVSSNGEDWITIKEGNKPVLFQGNTNPTDVVVAVFPKPLITRFVRIKPATWETGISMRFEVYGCGGGGSGGGGSGGGGSGGGGS[human IgG1 Fc left out]GGGGSGGGGSGGGGSGGGGSCMEALGMESGEIHSDQITASSQYSTNWSAERSRLNYPENGWTPGEDSYREWIQVDLGLLRFVTAVGTQGAISKETKKKYYVKTYKIDVSSNGEDWITIKEGNKPVLFQGNTNPTDVVVAVFPKPLITRFVRIKPATWETGISMRFEVYGCEVEA
Turning to B6, in experiment [2], the Kd was less than 1 nM.

B7: SEQ ID NO: 133, b1-Fc-b1 (NRP1, K373E) (Fc fusion)
chain: EDFKCMEALGMESGEIHSDQITASSQYSTNWSAERSRLNYPENGWTPGEDSYREWIQVDLGLLRFVTAVGTQGAISKETKKKYYVKTYKIDVSSNGEDWITIEEGNKPVLFQGNTNPTDVVVAVFPKPLITRFVRIKPATWETGISMRFEVYGCGGGGSGGGGSGGGGSGGGGS[human IgG1 Fc left out]GGGGSGGGGSGGGGSGGGGSCMEALGMESGEIHSDQITASSQYSTNWSAERSRLNYPENGWTPGEDSYREWIQVDLGLLRFVTAVGTQGAISKETKKKYYVKTYKIDVSSNGEDWITIEEGNKPVLFQGNTNPTDVVVAVFPKPLITRFVRIKPATWETGISMRFEVYGCEVEA
On to B7, for which the Kd in experiment [2] was less than 1 nM.

B8: SEQ ID NO: 122, b1b2-Fc (NRP1, WT, single b1b2) (Fc fusion)
chain: EDFKCMEALGMESGEIHSDQITASSQYSTNWSAERSRLNYPENGWTPGEDSYREWIQVDLGLLRFVTAVGTQGAISKETKKKYYVKTYKIDVSSNGEDWITIKEGNKPVLFQGNTNPTDVVVAVFPKPLITRFVRIKPATWETGISMRFEVYGCKITDYPCSGMLGMVSGLISDSQITSSNQGDRNWMPENIRLVTSRSGWALPPAPHSYINEWLQIDLGEEKIVRGIIIQGGKHRENKVFMRKFKIGYSNNGSDWKMIMDDSKRKAKSFEGNNNYDTPELRTFPALSTRFIRIYPERATHGGLGLRMELLGCGGGGSGGGGS[human IgG1 Fc left out]
Take B8: the dissociation constant (Kd) in experiment [2] was less than 1 nM.
